Assay results reported in US12551573B2, “Compositions and methods for the targeting of PCSK9” (Scribe Therapeutics Inc., priority 2022, dated 2026).
Positions count from the first letter of the chain named. Where two headings read alike, the source gives them in different places.

B1: DOMAIN_23604 (protein)
chain: MFQVTFSDVAIDFSHEEWGWLDSAQRDLYKDVMVQNYENLVSLGLSIPKPNVIALLEEGKDPWMVERKLSTDWDSRWENKE
modifications: Vicugna pacos
B2: DOMAIN_23641 (protein, listed as Carlito syrichta)
chain: VSFEDVAVYFTQEEWTLLDSAQRDLYRDVMLETCENLASIGNLLNHSVMYWLEGEENLGTVQEGDPQEWRLKTKGSTLRPD
B3: DOMAIN_23642 (protein)
chain: QPQEAVTFKDVEVTFSQDEWGWLDASQRNLYRDVMLENYGNVTSLVGPFTKPALISWLEAREPWGLNVQGAHPKGSPSAAP
modifications: Delphinapterus leucas
B4: DOMAIN_23654 (protein, listed as Carlito syrichta)
chain: MTFSDVAVDFSQQEWECLDPVQKTLYRDVMMENYGNLVSLGHSISKPDVIALLEQGKEPWVVTKEETRRCCTDLESRYEII
B5: DOMAIN_23680 (protein)
chain: AHGSVMFSDVSIVFSQEEWEYLDLKQRDLYRDVMLENYSNLVSLGCFISKPDVISLLEQGKEPWKVMRKGRGRYPDLETRY
modifications: Vicugna pacos
B6: DOMAIN_23709 (protein, listed as Carlito syrichta)
chain: AHRSVMFNDVSIDFSREEWEYLNLEQRDLYRDVMLENYSNLVSLGYFISKPDVISLLEQGEEPWKVVRKGRRRYPDLKTNY
B7: DOMAIN_23711 (protein)
chain: AQELVTFKDIAIDFTQEEWALLDTSQRQLYRDVMLENISHLVSVGYHLCKSDVISQLEQGVELWRDGREFLQGLNPDRKSG
modifications: Gulo gulo
B8: DOMAIN_23731 (protein, listed as Colobus angolensis)
chain: EMGLLTFRDIAIEFSLAEWQCLDHAQRNLYRDVMLENYRNLVSLGVAVSKPDLITCLEHNKEPRNIKRNEMVSKHPVTCSH
B9: DOMAIN_23745 (protein, listed as Myotis brandtii)
chain: MVFEDVAVYFSREEWGLLDSAQRALYRQVMLENFALVASLGLSASRPRIILQLERGEEPWVLSGLDVALARDAQRRPSPAQ
B10: DOMAIN_23793 (protein, listed as Odobenus rosmarus)
chain: AWAPLSFEDVAVGFSWEEWQLLAPSQKDLYRDVMLENYRNLVSVGYQASKPDSVFQLEQGEPPWIVEGAAQSQTCQEEIWE
B11: DOMAIN_23827 (protein, listed as Odobenus rosmarus)
chain: MPVTFEDVAVTFTQEEWGQLDPAQRTLYQEVMLETCGLLVSLGCPLPKPELFYPLDHSPELHTLKRGLSPNSCPGDSTKPG
B12: DOMAIN_23854 (protein)
chain: SQSLVTFGDVAVDFSREEWEWLSSAQRNLYRTVMLENYRNLVSLGLCISKPEMISSLEQRKEPWMAKRRLTRGRCPDLKIV
modifications: Gulo gulo
B13: DOMAIN_23863 (protein, listed as Mustela putorius)
chain: RPELVTFEDVAVYFSENEWTSLAPTQRVLYRDVMLENYGAVASLAVPFPKPALISQLERGEAPWCKAPQGALDGEGPRGIS
B14: DOMAIN_23885 (protein, listed as Colobus angolensis)
chain: ELVMFRDVAIDVSQEEWECLNPAQRNLYKEVMLENYSNLVSLGLSVSKPAVISSLEQGKEPWMFVREETGRWCSDLASRDE
B15: DOMAIN_23895 (protein, listed as Mustela putorius)
chain: FQGSVTFRDVAIDFSQEEWEWLQPAQRDLYRHVMLENYGHLVSLGLNISKPHVVSLLEQGRDPWPDNGAVGGGLFSESKGE
B16: DOMAIN_23898 (protein, listed as Mustela putorius)
chain: LQGQLTFRDVAIEFSEEEWRCLTHTQRQLYRDMMLENYRHLLFLGLIVSKPDLVSFLEQKKDPWDVKRKKTVVFDPGRWEW
B17: DOMAIN_23916 (protein, listed as Odobenus rosmarus)
chain: FQGSVTFRDVAIDFSQEEWEWLQPAQRDLYRHVMLENYGHLVSLGLDISKPYVVSLLEQGREPWLVKGDVRRDPFSVSESN
B18: DOMAIN_23931 (protein)
chain: B5 chain with S8N, K25E, M67V, G72R, R73Q
modifications: Gulo gulo
B19: DOMAIN_23940 (protein, listed as Homo sapiens)
chain: AHALVTFRDVAIDFSQKEWECLDTTQRKLYRDVMLENYNNLVSLAGYSGSKPDVITLLEQGKEPCVVARDVTGRQCPGLLS
B20: DOMAIN_23953 (protein, listed as Muntiacus reevesi)
chain: AQGSVMFTDVSIDFSQEEWEFLNPDQRDLYKDVMLENYSNLVSMGLYIPKPQVISLLEQGKEPWMIGRELTRGLCSALESM
B21: DOMAIN_759 (protein, listed as Pan paniscus)
chain: MFQTAWRQEPVTFEDVAVYFTQNEWASLDSVQRALYREVMLENYANVASLAFPFTTPVLVSQLEQGELPWGLDPWEPMGRE
B22: DOMAIN_23979 (protein, listed as Balaenoptera acutorostrata)
chain: SQESVSFEDVAVYFTQNQWASLASAQRTLYREVMLENYANVTSLAAFPFPKPDLIFQLERGEAPGGLDPWTSIRREVRGVC
B23: DOMAIN_24020 (protein, listed as Rhinolophus ferrumequinum)
chain: B5 chain with I12V, E20D, L24V, K25E, S39N, M67V, G70E, G72R, Y81H
B24: DOMAIN_24028 (protein)
chain: KPGAVSFADVAVYFSPEEWGCLRPAQRALYRDVMRETYGHLGALGFPGPKPALISWMEQESEAWSPDAQDPEEGESLGGAL
modifications: Ursus arctos
B25: DOMAIN_24042 (protein, listed as Propithecus coquereli)
chain: VQEPVTFKDVAVDFTQEEWGQLDLVQRTLYRDVMLETYGHLLSVGNQITKPEVISLLEQGEEPWSVEQAYPQSTCPEWMRN
B26: DOMAIN_24113 (protein, listed as Propithecus coquereli)
chain: YQTPVSFKDVVVGFTQEEWHRLSPAQRALYRDVMLETYSNLVSVGYEGTKPDVILRLEQEEAPWICEVACPGCHRWEDIWQ
B27: DOMAIN_24152 (protein, listed as Vombatus ursinus)
chain: FWESVTFQDVAVDFTWEEWGHLGPAQKELYREVMLENYRNLVCLGLAVSKPDVICQLEQGGAPWWPEGGVPGSSCAVWDTR

Test system: HBEGF locus
Format: cell-based, human
Details: high-throughput screen of dXR repression of the HBEGF gene
[1] = abundance of each domain in the library before vs after diphtheria toxin selection, listed domains met p-value <0.01 and log2(fold change) >2

Molecule | Log2 (fold change) [1] | Log2 (fold change) (change in abundance of each domain in the library before and after diphtheria toxin selection)
B1 | 2.6984 | –
B2 | 2.6942 | –
B3 | 3.8829 | –
B4 | 2.337 | –
B5 | 2.712 | –
B6 | 4.545 | –
B7 | 2.658 | –
B8 | 3.1609 | –
B9 | 3.4544 | –
B10 | 2.7573 | –
B11 | 2.3013 | –
B12 | 3.838 | –
B13 | 2.8758 | –
B14 | 3.033 | –
B15 | 2.6148 | –
B16 | 2.7383 | –
B17 | 3.3232 | –
B18 | 3.8077 | –
B19 | 2.5087 | –
B20 | 2.4156 | –
B21 | – | 3.3019
B22 | 4.0461 | –
B23 | 3.1125 | –
B24 | 3.8797 | –
B25 | 3.3038 | –
B26 | 3.3264 | –
B27 | 3.3664 | –
